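Briefly, cells in 96-well plates were exposed to five compound concentrations for 48 h, and endpoints were estimated by linear interpolation. GI50 = concentration required for 50% inhibition of growth.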 Active and inactive are the calls of the source. No stated cut-off is given here; in the data, active = GI50 up to about 1.1 µM and inactive = higher.
System: NCI-H322M
Test: growth of human tumour cells (NCI), 48 h

| SMILES | GI50 |
| --- | --- |
| CCCCCCCCC/C=C1/CC(CO)(COC(=O)CC(C(C)C)C(C)C)OC1=O (configuration not stated) | inactive: 12.7 µM |
| COC1=CC(=O)c2c(cc(COP(=O)(N(C)CCBr)N(C)CCBr)n2C)C1=O | inactive: 2.3 µM |
| COc1cc(C2SCC(=O)N2Cc2ccccc2)cc(OC)c1OC (configuration not stated) | inactive: > 100 µM |
| CCOC(=O)Nc1nc2cc(Cn3cccc3)ccc2[nH]1 | inactive: 4.17 µM |
| COC(=O)c1c[nH]c2c1-c1cc(C(=O)OCc3ccccc3)n(S(=O)(=O)c3ccc(C)cc3)c1C(=O)C2=O | active: 0.45 µM |
| O=C(CC(=O)Nc1ccccc1O)Nc1ccccc1O | inactive: > 100 µM |
| CN(C)c1ccc(/C=C2\C=Cc3ccccc32)cc1 | inactive: > 100 µM |
| CCOC(=O)C(C)c1nc2cc3cccnc3c(Cl)c2[nH]c1=O (configuration not stated) | inactive: > 100 µM |
| CCOC(=O)C(C)(C)Oc1ccc2c(=O)cc(-c3ccc(Cl)cc3)oc2c1 | inactive: > 100 µM |
| Oc1ccc(C[C@@H]2CN[C@H](Cc3ccc(O)c(Br)c3)CN2)cc1 | inactive: > 100 µM |
| CCCCCC(O)(CCCCC)CCCCCCCCC1=C(O)C(=O)c2ccc(=O)[nH]c2C1=O | inactive: 4.33 µM |
| CC(C)CCC1(O)O[C@H]2C[C@H]3[C@@H]4CCC5CC(=O)C=C[C@]5(C)[C@H]4CC[C@]3(C)[C@H]2[C@@H]1C (some centres not stated) | inactive: 14.5 µM |
| C=C(c1nc2ccc(Cl)cc2[nH]c1=O)C(O)c1ccc(C(O)C(=O)c2nc3ccc(Cl)cc3[nH]c2=O)cc1 (configuration not stated) | inactive: > 100 µM |
| Nc1ccc(Oc2ccc(C34CC5CC(C3)CC(c3ccc(Oc6ccc(N)cc6C(F)(F)F)cc3)(C5)C4)cc2)c(C(F)(F)F)c1 | inactive: 20 µM |
| COC1(OC)c2ccccc2C2(O)c3ccccc3C(=O)C12 (configuration not stated) | inactive: 95.3 µM |
| Nc1cccc2c1C1=NNC(=O)CC1C2 (configuration not stated) | inactive: > 100 µM |
| C1=CC2=CC=CC3c4nc5ccc6ccccc6c5nc4C(=C1)C23 (configuration not stated) | inactive: > 100 µM |
| O=[N+]([O-])c1ccc(Cl)c2c([N+](=O)[O-])cccc12 | inactive: 4.32 µM |
| N/N=C(/C=C1\C(=O)Nc2ccccc21)c1ccccc1 | inactive: 47.9 µM |
| COC(=O)c1cc2c(cc1CC(Cc1ccc3c(c1)CCCC3)C(=O)OC)CCCC2 (configuration not stated) | inactive: > 100 µM |
| CC1=CC(=O)/C(=C/N2C(=O)CNC2=S)C(=O)O1 | inactive: > 100 µM |
| O=C(c1ccccc1)c1nc2ccc(Cl)cc2c2c1Cc1ccccc1-2 | inactive: > 100 µM |
| Cc1cc(NCCCCCCCCNc2cc(C)nc3cc(N(C)C)ccc23)c2ccc(N(C)C)cc2n1 | inactive: 6.04 µM |

| SMILES | GI50 |
| --- | --- |
| O=c1cc(O)cc2n1CCC2 | inactive: > 100 µM |
| c1csc(C(NC2=NCCO2)C2CC2)c1 (configuration not stated) | inactive: > 100 µM |
| O=C1C2ON3c4ccccc4C(=O)C3(c3ccccc3)C2C(=O)N1c1ccccc1 (configuration not stated) | inactive: > 100 µM |
| c1cc2c3ccsc3c3sccc3c2s1 | inactive: > 100 µM |
| C=CC(Br)(CBr)CCC(Br)C(C)C (configuration not stated) | inactive: 15.7 µM |
| Cc1ccccc1Nc1nc2ccccc2nc1NS(=O)(=O)c1ccccc1 | inactive: > 100 µM |
| Cc1ccc(C(=O)C2CC3(CCC2(O)c2ccc(C)cc2)CC(=O)Nc2ccccc2C3=O)cc1 (configuration not stated) | inactive: 63.5 µM |
| O=C(Nc1nc2ccc([N+](=O)[O-])cc2s1)c1cc([N+](=O)[O-])ccc1Cl | inactive: 2.75 µM |
| NNS(=O)(=O)c1ccc(/C=C2\NC(=O)NC2=O)cc1 | inactive: > 100 µM |
| S=c1sc2c(s1)SCc1cccc(n1)CSc1sc(=S)sc1SCc1cccc(n1)CS2 | inactive: > 100 µM |
| CCOC(=O)CSc1nc(-c2ccc(Cl)cc2)c(C#N)c(=O)[nH]1 | inactive: > 100 µM |
| [O-][S+](Cc1ccccc1)c1ccccc1Cn1cccc1 (configuration not stated) | inactive: > 100 µM |
| CN(C)c1ccc(/C=N/CC2CCCN3CCCCC23)cc1 (configuration not stated) | inactive: > 100 µM |
| Oc1c(Br)cc(/C=C/c2ccnc(/C=C/c3cc(Br)c(O)c(Br)c3)c2)cc1Br | inactive: 30.3 µM |
| Cc1c(-c2ccccc2)oc(=O)c2ccccc12 | inactive: 25.4 µM |
| O=c1[nH]nc(-c2ccccc2)c2[nH]c3c(c12)CCCc1ccccc1-3 | inactive: 20.4 µM |
| COc1ccc2nc3c([N+](=O)[O-])ccc(NCCN(C)C)c3c(N)c2c1 | inactive: 1.38 µM |
| NS(=O)(=O)c1ccc(NC(=S)NC(=O)Nc2ccc(Cl)c(Cl)c2)cc1 | inactive: 16.4 µM |
| CC1(C)CC(c2c[nH]c3ccccc23)=CC2=Nc3ccccc3C21O (configuration not stated) | inactive: > 100 µM |
| CC(=O)OCC1OC(N2C(=O)[C@@H](Oc3ccccc3)[C@H]2/C=C/c2ccccc2)C(OC(C)=O)C(OC(C)=O)C1OC(C)=O (some centres not stated) | inactive: > 100 µM |
| O=C1C=CC(=O)c2c1ccc1c3ccccc3n(-c3ccccn3)c21 | inactive: > 100 µM |
| CCOC(=O)C1C(c2cc(OC)c(O)c(OC)c2)c2cc3c(cc2OC1(C)O)OCO3 (configuration not stated) | inactive: > 100 µM |
| O=C(Nc1ccccc1)Oc1ccccc1C1CCCCC1 | inactive: 35.2 µM |

| SMILES | GI50 |
| --- | --- |
| COc1nc2c(c(=O)[nH]1)N=C(c1ccc(Cl)cc1)CC(c1ccccc1)N2 (configuration not stated) | inactive: 42.4 µM |
| COc1ccc2c(c1)SC1=Nc3sc4cc(OC)ccc4[n+]3CN12 | inactive: 87.9 µM |
| C/C(=C/C(=O)Nn1c(Cc2ccccc2)n[nH]c1=O)C(=O)O | inactive: > 100 µM |
| OCC(O)C(O)C(O)C1SC(c2ccccc2)=NN1c1ccccc1 (configuration not stated) | inactive: > 100 µM |
| CCOC(=O)C1=NN(c2ccccc2)C(=O)/C1=C\NC(=S)C(N)=S | inactive: 56.8 µM |
| COc1ccc(/C(Cl)=C(\C=O)c2ccc(OC)c(OC)c2)cc1OC | inactive: 99.5 µM |
| S=C1N=C(Cl)/C(=C\c2ccccc2)N1 | inactive: > 100 µM |
| Cc1ccc(NC(=O)/C(Cc2cc(=O)oc3cc(O)ccc23)=N\NC(=O)C[N+](C)(C)C)cc1C | inactive: > 100 µM |
| CC1CC(c2ccccc2)=Nc2ccccc2S1 (configuration not stated) | inactive: > 100 µM |
| O=C1NC(N2CCCC(CO)C2)=N/C1=C\c1ccc(O)cc1 (configuration not stated) | inactive: > 100 µM |
| Cc1cc(NC(=O)NC(=O)c2ccccc2N)ccc1Oc1ncc(Br)cn1 | active: 0.0255 µM |
| CC(=O)OC1COC(N2c3ccccc3[C@@H]3CCc4c([nH]c5ccccc45)[C@@H]32)C(OC(C)=O)C1OC(C)=O.CC(=O)OC1COC(N2c3ccccc3[C@H]3CCc4c([nH]c5ccccc45)[C@H]32)C(OC(C)=O)C1OC(C)=O (some centres not stated) | inactive: > 100 µM |
| CN1C(=O)C(/C=N/NC(=O)c2cccnc2)C(N)N(C)C1=O (configuration not stated) | inactive: > 100 µM |
| CC(C)[C@H](O)C(=O)N[C@H]1Cc2ccc3c(c2)[C@]24C5=C(N=C(O5)[C@H](C(C)C)NC1=O)c1nc(Cl)c(o1)-c1c(Cl)[nH]c5cccc(c15)-c1cccc2c1N[C@H]4O3 | active: 0.0193 µM |
| O=C(Oc1c(Cl)cc(C2(c3cc(Cl)c(OC(=O)c4ccccc4)c(Cl)c3)CCCCC2)cc1Cl)c1ccccc1 | inactive: 12.9 µM |
| CCOC12SC(Nc3ccc(C)cc3)=NN1C(=S)N(C)N=C2C (configuration not stated) | inactive: > 100 µM |
| Cc1nc2sc3ccccc3n2c(=O)c1/N=N/c1ccc(Br)cc1 | inactive: > 100 µM |
| Cc1nc(O)c2ncn(CCO)c2n1 | inactive: > 100 µM |
| CCOC(=O)/C(=C/c1ccc(OC)cc1)N(CC)CC | inactive: > 100 µM |
| CCOC(OCC)C(CCc1ccccc1)c1c(N)nc(N)[nH]c1=O (configuration not stated) | inactive: > 100 µM |
| CSCC(COC(C)=O)(CSC)c1ccncc1 | inactive: > 100 µM |
| O=c1c2cc([N+](=O)[O-])ccc2[nH]n1Cc1ccccc1Cl | inactive: > 100 µM |
| Cc1cc2ccc(N)nc2nc1O | inactive: > 100 µM |

| SMILES | GI50 |
| --- | --- |
| CC(O)c1c2c(cc3c1CC1(C3)Cc3cc4c(c(C(C)O)c3C1)CCC4)CCC2 (configuration not stated) | inactive: 22.6 µM |
| Clc1ccc(-c2c(C3=NCCN3)nnn2-c2ccc(Cl)cc2)cc1 | inactive: 18.9 µM |
| N#CC(/C(=N\NC(=O)c1ccncc1)C(=O)Nc1ccc([N+](=O)[O-])cc1[N+](=O)[O-])c1nc(-c2ccc(Br)cc2)cs1 (configuration not stated) | inactive: > 100 µM |
| O=C(NC1CCCC1=O)c1ccccc1 (configuration not stated) | inactive: > 100 µM |
| CCCCC1(C)C=C/C(=C2/C(=O)O/C(=C\C(=O)O)C2=O)O1 (configuration not stated) | inactive: > 100 µM |
| Nc1ccc2nc(Nc3ccc(Cl)c(Cl)c3)cnc2c1 | inactive: 23.2 µM |
| FC(F)(F)c1ccc(C2SCc3nc4ccccc4n32)cc1 (configuration not stated) | inactive: > 100 µM |
| CCCNc1[nH]c(C(C)=O)c(N)c1C(=S)Nc1ccccc1 | inactive: 53.5 µM |
| O=c1[nH][nH]c(=O)n1CCCCCCn1c(=O)[nH][nH]c1=O | inactive: > 100 µM |
| CN1CCN2c3ccccc3CC(C#N)(C#N)C2C1 (configuration not stated) | inactive: > 100 µM |
| O=C1c2ccncc2C(=O)c2c(O)ccc(O)c21 | inactive: 28.4 µM |
| Cc1ccccc1C1=[N+]([O-])c2ccc(Cl)cc2C1=O | inactive: 20.9 µM |
| O=C(O)CC1NC(/C(=C/c2ccccc2O)NC(=O)c2ccccc2)OC1=O (configuration not stated) | inactive: > 100 µM |
| COc1cc(C2c3cc4c(cc3[C@@H](OCCN)[C@H]3COC(=O)C23)OCO4)cc(OC)c1O (some centres not stated) | inactive: 2.43 µM |
| CC(c1ccc2c(c1)CCC1C2CC2OC23CC=CC(=O)[C@]13C)C1C[C@]2(C)O[C@]2(C)[C@H](O)O1 (some centres not stated) | inactive: 61.9 µM |
| NC1CSc2ccccc2NC1=O (configuration not stated) | inactive: > 100 µM |
| CO[C@H]1[C@@H](O)[C@H](O[C@@H]2C[C@H]3CC[C@@H]4[C@H](CC[C@]5(C)[C@@H](C6=CC(=O)OC6)CC[C@]45O)[C@@]3(C)[C@H](OC(C)=O)C2)O[C@@H](C)[C@H]1O | inactive: 1.87 µM |
| CC(=O)Oc1ccc(/C=C/C(=O)NCCOC(=O)/C=C/c2ccc(OC(C)=O)c(OC(C)=O)c2)cc1OC(C)=O | inactive: 29.9 µM |
| O=C(/C=C/c1cccc2ccccc12)c1ccccc1 | inactive: 12.3 µM |
| COc1cc2ccccc2oc1=O | inactive: 65.3 µM |
| Cc1ccc2c(O)cc(-c3ccc(C)s3)nc2n1 | active: 0.644 µM |
| COc1cccc2c1C(=N)c1c(O)c3c(c(O)c1C2=O)C[C@@](O)(C(C)=O)C[C@@H]3OC1CC(N)C(O)C(C)O1 (some centres not stated) | inactive: 3.78 µM |
| CCN(CC)/[N+]([O-])=N/OCOC(C)=O | inactive: > 100 µM |
